{
  "source": "patent US20250101135A1",
  "about": "(Hoffmann-La Roche, published 2025)",
  "binders": {"B1": {"name": "monovalent CEA(T84.66-LCHA) targeted split trimeric 4-1BB ligand (71-248) Fc (kih) fusion containing CH-CL cross with charged residues (construct 5.4) (Fc fusion)", "chain 1": "REGPELSPDDPAGLLDLRQGMFAQLVAQNVLLIDGPLSWYSDPGLAGVSLTGGLSYKEDTKELVVAKAGVYYVFFQLELRRVVAGEGSGSVSLALHLQPLRSAAGAAALALTVDLPPASSEARNSAFGFQGRLLHLSAGQRLGVHLHTEARARHAWQLTQGATVLGLFRVTPEIPAGLGGGGSGGGGSREGPELSPDDPAGLLDLRQGMFAQLVAQNVLLIDGPLSWYSDPGLAGVSLTGGLSYKEDTKELVVAKAGVYYVFFQLELRRVVAGEGSGSVSLALHLQPLRSAAGAAALALTVDLPPASSEARNSAFGFQGRLLHLSAGQRLGVHLHTEARARHAWQLTQGATVLGLFRVTPEIPAGLGGGGSGGGGSRTVAAPSVFIFPPSDRKLKSGTASVVCLLNNFYPREAKVQWKVDNALQSGNSQESVTEQDSKDSTYSLSSTLTLSKADYEKHKVYACEVTHQGLSSPVTKSFNRGE[no letters for human IgG1 Fc with changes]", "chain 2": "REGPELSPDDPAGLLDLRQGMFAQLVAQNVLLIDGPLSWYSDPGLAGVSLTGGLSYKEDTKELVVAKAGVYYVFFQLELRRVVAGEGSGSVSLALHLQPLRSAAGAAALALTVDLPPASSEARNSAFGFQGRLLHLSAGQRLGVHLHTEARARHAWQLTQGATVLGLFRVTPEIPAGLGGGGSGGGGSASTKGPSVFPLAPSSKSTSGGTAALGCLVEDYFPEPVTVSWNSGALTSGVHTFPAVLQSSGLYSLSSVVTVPSSSLGTQTYICNVNHKPSNTKVDEKVEPKSC", "heavy": "QVQLVQSGAEVKKPGSSVKVSCKASGFNIKDTYMHWVRQAPGQGLEWMGRIDPANGNSKYVPKFQGRVTITADTSTSTAYMELSSLRSEDTAVYYCAPFGYYVSDYAMAYWGQGTLVTVSSASTKGPSVFPLAPSSKSTSGGTAALGCLVKDYFPEPVTVSWNSGALTSGVHTFPAVLQSSGLYSLSSVVTVPSSSLGTQTYICNVNHKPSNTKVDKKVEPKSCDKTHTCPPCPAPEAAGGPSVFLFPPKPKDTLMISRTPEVTCVVVDVSHEDPEVKFNWYVDGVEVHNAKTKPREEQYNSTYRVVSVLTVLHQDWLNGKEYKCKVSNKALGAPIEKTISKAKGQPREPQVCTLPPSRDELTKNQVSLSCAVKGFYPSDIAVEWESNGQPENNYKTTPPVLDSDGSFFLVSKLTVDKSRWQQGNVFSCSVMHEALHNHYTQKSLSLSPGK", "light": "EIVLTQSPATLSLSPGERATLSCRAGESVDIFGVGFLHWYQQKPGQAPRLLIYRASNRATGIPARFSGSGSGTDFTLTISSLEPEDFAVYYCQQTNEDPYTFGQGTKLEIKRTVAAPSVFIFPPSDEQLKSGTASVVCLLNNFYPREAKVQWKVDNALQSGNSQESVTEQDSKDSTYSLSSTLTLSKADYEKHKVYACEVTHQGLSSPVTKSFNRGEC"}, "B2": {"name": "bivalent CEA(T84.66-LCHA) targeted split trimeric 4-1BB ligand (71-248) Fc (kih) fusion (construct 5.6) (Fc fusion)", "heavy 1": "QVQLVQSGAEVKKPGSSVKVSCKASGFNIKDTYMHWVRQAPGQGLEWMGRIDPANGNSKYVPKFQGRVTITADTSTSTAYMELSSLRSEDTAVYYCAPFGYYVSDYAMAYWGQGTLVTVSSASTKGPSVFPLAPSSKSTSGGTAALGCLVKDYFPEPVTVSWNSGALTSGVHTFPAVLQSSGLYSLSSVVTVPSSSLGTQTYICNVNHKPSNTKVDKKVEPKSCDKTHTCPPCPAPEAAGGPSVFLFPPKPKDTLMISRTPEVTCVVVDVSHEDPEVKFNWYVDGVEVHNAKTKPREEQYNSTYRVVSVLTVLHQDWLNGKEYKCKVSNKALGAPIEKTISKAKGQPREPQVCTLPPSRDELTKNQVSLSCAVKGFYPSDIAVEWESNGQPENNYKTTPPVLDSDGSFFLVSKLTVDKSRWQQGNVFSCSVMHEALHNHYTQKSLSLSPGGGGGSGGGGSREGPELSPDDPAGLLDLRQGMFAQLVAQNVLLIDGPLSWYSDPGLAGVSLTGGLSYKEDTKELVVAKAGVYYVFFQLELRRVVAGEGSGSVSLALHLQPLRSAAGAAALALTVDLPPASSEARNSAFGFQGRLLHLSAGQRLGVHLHTEARARHAWQLTQGATVLGLFRVTPEIPAGLGGGGSGGGGSREGPELSPDDPAGLLDLRQGMFAQLVAQNVLLIDGPLSWYSDPGLAGVSLTGGLSYKEDTKELVVAKAGVYYVFFQLELRRVVAGEGSGSVSLALHLQPLRSAAGAAALALTVDLPPASSEARNSAFGFQGRLLHLSAGQRLGVHLHTEARARHAWQLTQGATVLGLFRVTPEIPAGL", "heavy 2": "QVQLVQSGAEVKKPGSSVKVSCKASGFNIKDTYMHWVRQAPGQGLEWMGRIDPANGNSKYVPKFQGRVTITADTSTSTAYMELSSLRSEDTAVYYCAPFGYYVSDYAMAYWGQGTLVTVSSASTKGPSVFPLAPSSKSTSGGTAALGCLVKDYFPEPVTVSWNSGALTSGVHTFPAVLQSSGLYSLSSVVTVPSSSLGTQTYICNVNHKPSNTKVDKKV[no letters for human IgG1 Fc with changes]GGGGSGGGGSREGPELSPDDPAGLLDLRQGMFAQLVAQNVLLIDGPLSWYSDPGLAGVSLTGGLSYKEDTKELVVAKAGVYYVFFQLELRRVVAGEGSGSVSLALHLQPLRSAAGAAALALTVDLPPASSEARNSAFGFQGRLLHLSAGQRLGVHLHTEARARHAWQLTQGATVLGLFRVTPEIPAGL", "light": "B1 light"}, "B3": {"name": "bivalent FAP(28H1)-targeted human 4-1BB ligand (71-254) trimer-containing Fc (kih) fusion molecule Construct 1.5 (Fc fusion)", "heavy 1": "EVQLLESGGGLVQPGGSLRLSCAASGFTFSSHAMSWVRQAPGKGLEWVSAIWASGEQYYADSVKGRFTISRDNSKNTLYLQMNSLRAEDTAVYYCAKGWLGNFDYWGQGTLVTVSSASTKGPSVFPLAPSSKSTSGGTAALGCLVKDYFPEPVTVSWNSGALTSGVHTFPAVLQSSGLYSLSSVVTVPSSSLGTQTYICNVNHKPSNTKVDKKVEPKSCDKTHTCPPCPAPEAAGGPSVFLFPPKPKDTLMISRTPEVTCVVVDVSHEDPEVKFNWYVDGVEVHNAKTKPREEQYNSTYRVVSVLTVLHQDWLNGKEYKCKVSNKALGAPIEKTISKAKGQPREPQVCTLPPSRDELTKNQVSLSCAVKGFYPSDIAVEWESNGQPENNYKTTPPVLDSDGSFFLVSKLTVDKSRWQQGNVFSCSVMHEALHNHYTQKSLSLSPGGGGGSGGGGSREGPELSPDDPAGLLDLRQGMFAQLVAQNVLLIDGPLSWYSDPGLAGVSLTGGLSYKEDTKELVVAKAGVYYVFFQLELRRVVAGEGSGSVSLALHLQPLRSAAGAAALALTVDLPPASSEARNSAFGFQGRLLHLSAGQRLGVHLHTEARARHAWQLTQGATVLGLFRVTPEIPAGLPSPRSEGGGGSGGGGSREGPELSPDDPAGLLDLRQGMFAQLVAQNVLLIDGPLSWYSDPGLAGVSLTGGLSYKEDTKELVVAKAGVYYVFFQLELRRVVAGEGSGSVSLALHLQPLRSAAGAAALALTVDLPPASSEARNSAFGFQGRLLHLSAGQRLGVHLHTEARARHAWQLTQGATVLGLFRVTPEIPAGLPSPRSE", "heavy 2": "EVQLLESGGGLVQPGGSLRLSCAASGFTFSSHAMSWVRQAPGKGLEWVSAIWASGEQYYADSVKGRFTISRDNSKNTLYLQMNSLRAEDTAVYYCAKGWLGNFDYWGQGTLVTVSSASTKGPSVFPLAPSSKSTSGGTAALGCLVKDYFPEPVTVSWNSGALTSGVHTFPAVLQSSGLYSLSSVVTVPSSSLGTQTYICNVNHKPSNTKVDKKV[no letters for human IgG1 Fc with changes]GGGGSGGGGSREGPELSPDDPAGLLDLRQGMFAQLVAQNVLLIDGPLSWYSDPGLAGVSLTGGLSYKEDTKELVVAKAGVYYVFFQLELRRVVAGEGSGSVSLALHLQPLRSAAGAAALALTVDLPPASSEARNSAFGFQGRLLHLSAGQRLGVHLHTEARARHAWQLTQGATVLGLFRVTPEIPAGLPSPRSE", "light": "EIVLTQSPGTLSLSPGERATLSCRASQSVSRSYLAWYQQKPGQAPRLLIIGASTRATGIPDRFSGSGSGTDFTLTISRLEPEDFAVYYCQQGQVIPPTFGQGTKVEIKRTVAAPSVFIFPPSDEQLKSGTASVVCLLNNFYPREAKVQWKVDNALQSGNSQESVTEQDSKDSTYSLSSTLTLSKADYEKHKVYACEVTHQGLSSPVTKSFNRGEC", "notes": "two anti-FAP Fabs; dimeric and monomeric 4-1BBL at the C-termini of hole and knob heavy chains"}},
  "key": {"[1]": {"biological_target": "T1, human 4-1BB (CD137) on cells (human, UniProt Q07011 24-255)", "experiment": "cell-based or functional assay"}, "human NA3B3A2-avi-His [2]": {"biological_target": "T2, human NA3B3A2-avi-His (human)", "T2 construct": "hybrid antigen with avi and His tags; also called hu NA3B3A2", "T2 chain": "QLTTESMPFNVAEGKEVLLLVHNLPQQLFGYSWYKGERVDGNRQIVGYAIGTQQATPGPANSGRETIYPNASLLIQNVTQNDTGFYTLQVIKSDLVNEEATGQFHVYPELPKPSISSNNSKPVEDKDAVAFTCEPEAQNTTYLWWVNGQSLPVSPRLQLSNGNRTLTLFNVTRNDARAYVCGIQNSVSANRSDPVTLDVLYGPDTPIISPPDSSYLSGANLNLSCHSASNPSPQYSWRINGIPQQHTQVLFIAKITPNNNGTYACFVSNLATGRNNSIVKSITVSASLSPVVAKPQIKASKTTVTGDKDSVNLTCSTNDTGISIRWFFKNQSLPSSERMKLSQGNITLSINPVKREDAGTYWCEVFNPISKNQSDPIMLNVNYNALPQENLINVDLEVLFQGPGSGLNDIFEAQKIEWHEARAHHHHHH", "experiment": "SPR (Biacore T200), simultaneous binding: construct held on immobilized human 4-1BB Fc(kih), human NA3B3A2-avi-His injected as analyte 2 at 500 nM"}, "[3]": {"biological_target": "T1, human 4-1BB (CD137) on cells", "experiment": "flow cytometry on activated human PBMC, 4-1BB+ CD8+ T cells"}, "[4]": {"biological_target": "T1, human 4-1BB (CD137) on cells", "experiment": "flow cytometry on activated human PBMC, 4-1BB+ CD4+ T cells"}, "human NA3B3A2-avi-His [5]": {"biological_target": "T2, human NA3B3A2-avi-His", "experiment": "SPR (Biacore T200), simultaneous binding: construct held on immobilized human 4-1BB Fc(kih), human NA3B3A2-avi-His injected as analyte 2 at 500 nM"}, "[6]": {"biological_target": "T1, human 4-1BB (CD137) on cells", "experiment": "flow cytometry on activated human PBMC, 4-1BB+ CD3+CD8+ T cells"}, "[7]": {"biological_target": "T3, human fibroblast activation protein (FAP) on cells (human, UniProt Q12884 1-760)", "T3 construct": "also called human FAP; huFAP", "experiment": "flow cytometry on FAP+ MV-3 cells"}, "[8]": {"biological_target": "T1, human 4-1BB (CD137) on cells", "experiment": "flow cytometry on activated human PBMC, 4-1BB+ CD3+CD4+ T cells"}, "[9]": {"biological_target": "T3, human fibroblast activation protein …", "experiment": "flow cytometry on NIH/3T3-huFAP clone 39 cells"}},
  "note": "Like-named read-outs stand apart in the source and are kept apart here.",
  "data": [
    {"binder": "B1", "values": [
      {"measurement": "EC50 [nM] of NF-kB-luciferase activation, human 4-1BB HeLa reporter cells with MKN-45 cells", "setting": "[1]", "value": 0.34, "unit": "nM"},
      {"measurement": "EC50 [nM] of NF-kB-luciferase activation, human 4-1BB HeLa reporter cells, no tumor cells", "setting": "[1]", "value": 3.1, "unit": "nM"},
      {"measurement": "binding result", "setting": "human NA3B3A2-avi-His [2]", "value": "binds"},
      {"measurement": "EC50", "setting": "[3]", "value": 0.13, "unit": "nM"},
      {"measurement": "EC50", "setting": "[4]", "value": 0.35, "unit": "nM"}
    ]},
    {"binder": "B2", "values": [
      {"measurement": "EC50 [nM] of NF-kB-luciferase activation, human 4-1BB HeLa reporter cells with MKN-45 cells", "setting": "[1]", "value": 0.21, "unit": "nM"},
      {"measurement": "EC50 [nM] of NF-kB-luciferase activation, human 4-1BB HeLa reporter cells, no tumor cells", "setting": "[1]", "value": 2.05, "unit": "nM"},
      {"measurement": "binding result", "setting": "human NA3B3A2-avi-His [5]", "value": "binds"},
      {"measurement": "EC50", "setting": "[3]", "value": 0.06, "unit": "nM"},
      {"measurement": "EC50", "setting": "[4]", "value": 0.34, "unit": "nM"}
    ]},
    {"binder": "B3", "values": [
      {"measurement": "EC50", "setting": "[6]", "value": 0.17, "unit": "nM"},
      {"measurement": "EC50", "setting": "[7]", "value": 0.53, "unit": "nM"},
      {"measurement": "EC50", "setting": "[8]", "value": 2.67, "unit": "nM"},
      {"measurement": "EC50", "setting": "[9]", "value": 10.1, "unit": "nM"}
    ]}
  ]
}
